Measurements taken from patent publication US5434182A (priority 1993, dated 1995).
Where two headings read alike, the source gives them in different places.

How the values were obtained:
[1] = tested on: S. epidermidis; assay: microbe, parasite or virus in culture; conditions: Staphylococcus epidermidis, read-out: Reduction of bacterial concentration, S. epidermidis
[2] = tested on: HSV-1
[3] = tested on: HSV-1; assay: microbe, parasite or virus in culture; conditions: Human alphaherpesvirus 1, read-out: Reduction in HSV-1 titer
[4] = tested on: E. coli; assay: microbe, parasite or virus in culture; conditions: Escherichia coli, read-out: Reduction of bacterial concentration, E. coli
[5] = tested on: H. influenza; assay: microbe, parasite or virus in culture; conditions: read-out: Reduction of bacterial concentration, H. influenza
[6] = tested on: HSV-1; assay: microbe, parasite or virus in culture; conditions: for log reduction at 1000 µg/mL / log reduction at 2000 µg/mL / log reduction at 4000 µg/mL: Human alphaherpesvirus 1, read-out: Reduction in HSV-1 titer
[7] = tested on: VSV; assay: microbe, parasite or virus in culture; type: cell-based; conditions: Vesicular stomatitis virus
[8] = tested on: H. influenza; conditions: 2 mg/ml
[9] = tested on: S. enteritidis; conditions: 2 mg/ml
[10] = tested on: E. coli; conditions: 2 mg/ml
[11] = tested on: S. epidermidis
[12] = tested on: S. enteritidis; assay: microbe, parasite or virus in culture; conditions: Salmonella enterica, read-out: Reduction of bacterial concentration, S. enteritidis

With CCCCCCCCCC(=O)OCC(O)CO (racemic) [Monocaprin (10:0), 1-Monodecanoyl-rac-glycerol] the log reduction at 2000 µg/mL [1] was at least 4, the “effectiveness relative to monolinolein” value [2] was “over 60 -fold” and the log reduction at 500 µg/mL [3] was 0. The log reduction at 1000 µg/mL [3] was 0.3, the log reduction at 2000 µg/mL [3] was 2.3 and the log reduction at 2000 µg/mL [4] was at least 5. For the same compound, the log reduction at 2000 µg/mL [5] was at least 8, the log reduction at 1000 µg/mL [6] was 0.8 and the log reduction at 2000 µg/mL [6] was 1.8. It also gave a log reduction at 4000 µg/mL [6] of at least 4 and a log reduction at 3000 µg/mL ([6]; Human alphaherpesvirus 1, read-out: kill of enveloped virus in human serum) of at least 4.
Work on CCCCCCCC(=O)OCC(O)CO (racemic) [Monocaprylin (8:0), 1-Monocapryloyl-rac-glycerol] yielded a log reduction at 2000 µg/mL [1] of at least 4, a log reduction at 2000 µg/mL [4] of at least 5 and a log reduction at 2000 µg/mL [5] of at least 8.
Work on CCCCCCCCCCCC(=O)OCC(O)CO (racemic) [Monolaurin (12:0), 1-Monolauroyl-rac-glycerol] yielded a log reduction at 2000 µg/mL [1] of at least 4, a log reduction at 7500 µM ([7]; read-out: Reduction in VSV Titer, 7.5 mM, no sodium taurocholate, human serum) of 0 and a log reduction at 15000 µM ([7]; read-out: Reduction in VSV Titer, 15 mM, no sodium taurocholate, human serum) of 0. For the same compound, the log reduction at 500 µg/mL [3] was 0.3, the log reduction at 1000 µg/mL [3] was 0.3 and the log reduction at 2000 µg/mL [3] was 1. The “inactivation of H. influenzae in words” value [8] was “inactivated”, the “effect on S. enteritidis in words” value [9] was “unaffected” and the log reduction at 2000 µg/mL [4] was 0. For the same compound, the “effect on E. coli in words” value [10] was “unaffected”, the “effect on bacteria (scanning electron micrographs)” value [11] was “completely disintegrated” and the log reduction at 2000 µg/mL [5] was at least 8. For the same compound, the log reduction at 1000 µg/mL [6] was 0.8, the log reduction at 2000 µg/mL [6] was 1.5 and the log reduction at 4000 µg/mL [6] was 2. For the same compound, the log reduction at 2000 µg/mL [12] was 0.
In the case of CCCCC/C=C\C/C=C\CCCCCCCC(=O)OC[C@@H](O)CO [Monolinolein (18:2), Monolinolein], the log reduction at 500 µg/mL [3] is reported as 0, the log reduction at 1000 µg/mL [3] is reported as 0.3 and the log reduction at 2000 µg/mL [3] is reported as 0.5.
CCCCCCCC/C=C\CCCCCCCC(=O)OCC(O)CO (stereo not drawn) [Monoolein (18:1), Monoolein] was tested, and the log reduction at 2000 µg/mL [1] was at least 4, the log reduction at 500 µg/mL [3] was 0 and the log reduction at 1000 µg/mL [3] was 0. For the same compound, the log reduction at 2000 µg/mL [3] was 0, the log reduction at 2000 µg/mL [4] was 0 and the log reduction at 2000 µg/mL [12] was 0.
In the case of “Mono-eicosenoin [Mono-eicosenoin (20:1)]”, the “Reduction of bacterial concentration, S. enteritidis” value [9] is reported as 0 log10, the “Reduction of bacterial concentration, E. coli” value [10] is reported as 0 log10 and the “Reduction of bacterial concentration, S. epidermidis” value ([11]; 2 mg/ml) is reported as at least 4.0 log10.
